{"source": "the supplement of paper PMC3334620", "note": "Over roughly 33,000 sequences, “E-score (-0.5 to 0.5)” has its median near -0.017; the highest 2% begin near 0.3. The list shows a part of the results."}
{"biological_target": "T1, Sut1 (UniProt P53032)", "T1 sequence": "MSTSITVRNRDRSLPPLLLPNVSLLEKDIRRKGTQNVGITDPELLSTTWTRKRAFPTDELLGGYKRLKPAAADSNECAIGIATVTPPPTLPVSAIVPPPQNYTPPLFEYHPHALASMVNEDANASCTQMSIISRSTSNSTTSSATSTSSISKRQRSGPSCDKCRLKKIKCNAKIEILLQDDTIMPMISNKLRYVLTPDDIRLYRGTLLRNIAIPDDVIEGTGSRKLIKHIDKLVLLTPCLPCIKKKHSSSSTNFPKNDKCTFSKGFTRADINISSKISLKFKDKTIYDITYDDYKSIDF", "experiment": "PBM E-score (8-mer binding enrichment) (E-score (-0.5 to 0.5)); higher = stronger / more preferred TF binding; most listed sequences are background and not binding sites", "settings": "protein concentration: 200 nM; construct: GST-full length", "how_it_was_run": "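Each ungapped eight-base word and its reverse complement, pooled, received an E-score from the Universal PBM Analysis Suite. Underlying scans, normalised with masliner, recorded fluorescent anti-GST bound to GST-tagged yeast transcription factors. These were applied at about 100-200 nM to universal all-10-mer Agilent arrays double-stranded by primer extension.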"}
{"sequence": "AACAGCGG", "PBM E-score": -0.0307}
{"sequence": "AGTCGCGG", "PBM E-score": 0.0263}
{"sequence": "CACTAGAG", "PBM E-score": -0.0355}
{"sequence": "TGCGGAAA", "PBM E-score": 0.149}
{"sequence": "GATGAGCA", "PBM E-score": 0.0423}
{"sequence": "CAATTGCA", "PBM E-score": -0.0697}
{"sequence": "ACGGACGT", "PBM E-score": 0.00936}
{"sequence": "CACAAAGC", "PBM E-score": -0.122}
{"sequence": "AATAGAAA", "PBM E-score": 0.167}
{"sequence": "GTCCGCAC", "PBM E-score": 0.247}
{"sequence": "ATGTGCGC", "PBM E-score": -0.0669}
{"sequence": "CCCGACCA", "PBM E-score": -0.0857}
{"sequence": "CGCTCGGC", "PBM E-score": -0.00952}
{"sequence": "AGGCGTAG", "PBM E-score": -0.152}
{"sequence": "CGGCTTCA", "PBM E-score": 0.0568}
{"sequence": "CAGTGGAG", "PBM E-score": 0.0447}
{"sequence": "ACAAGCAG", "PBM E-score": 0.0716}
{"sequence": "CACTTGCG", "PBM E-score": -0.0968}
{"sequence": "CCTCTCAA", "PBM E-score": -0.0081}
{"sequence": "GGTTCGAA", "PBM E-score": 0.14}
{"sequence": "CAGTGAGG", "PBM E-score": -0.304}
{"sequence": "CCACCTTC", "PBM E-score": -0.24}
{"sequence": "CCCCGCAA", "PBM E-score": 0.034}
{"sequence": "CGGATTTC", "PBM E-score": 0.211}
{"sequence": "GAACCCTA", "PBM E-score": -0.0467}
{"sequence": "AGAGTTTC", "PBM E-score": -0.0457}
{"sequence": "CAGGAGTA", "PBM E-score": -0.157}
{"sequence": "AAATCTCG", "PBM E-score": 0.179}
{"sequence": "TCAGGGGA", "PBM E-score": -0.213}
{"sequence": "AGTCCCAT", "PBM E-score": -0.214}
{"sequence": "TCTGTCCA", "PBM E-score": 0.0543}
{"sequence": "AAGCCAGC", "PBM E-score": -0.16}
{"sequence": "CCGGCCTA", "PBM E-score": 0.0314}
{"sequence": "CTTCTATC", "PBM E-score": -0.00493}
{"sequence": "ATCATTAC", "PBM E-score": 0.23}
{"sequence": "ATACTGTG", "PBM E-score": -0.145}
{"sequence": "ATTACTCG", "PBM E-score": 0.0802}
{"sequence": "ATGTGAGA", "PBM E-score": 0.147}
{"sequence": "CGTGGCTC", "PBM E-score": -0.207}
{"sequence": "ATAGTCGC", "PBM E-score": -0.0441}
{"sequence": "CAACCCTA", "PBM E-score": -0.122}
{"sequence": "CCTCGCCC", "PBM E-score": -0.307}
{"sequence": "ACCACTCA", "PBM E-score": -0.156}
{"sequence": "CCGCATTC", "PBM E-score": -0.0255}
{"sequence": "CGCGGCCA", "PBM E-score": -0.212}
{"sequence": "AATGGCTG", "PBM E-score": -0.115}
{"sequence": "AGAACTTG", "PBM E-score": 0.0896}
{"sequence": "CATCCTCC", "PBM E-score": -0.292}
{"sequence": "GTAGCTTA", "PBM E-score": 0.165}
{"sequence": "ACAAGAAC", "PBM E-score": 0.264}
{"sequence": "TATCTACA", "PBM E-score": 0.107}
{"sequence": "CCGCCATC", "PBM E-score": -0.0257}
{"sequence": "GAGGTAAC", "PBM E-score": -0.145}
{"sequence": "ACGGGGCT", "PBM E-score": -0.0661}
{"sequence": "CTAATCAG", "PBM E-score": 0.0614}
{"sequence": "GTTGATTA", "PBM E-score": 0.166}
{"sequence": "CAGCACAA", "PBM E-score": 0.028}
{"sequence": "CACCGAGA", "PBM E-score": -0.0582}
{"sequence": "AAGCGGGA", "PBM E-score": -0.0553}
{"sequence": "ACAGCGGA", "PBM E-score": 0.122}
{"sequence": "CCAACTGC", "PBM E-score": -0.137}
{"sequence": "AACCGCAC", "PBM E-score": -0.108}
{"sequence": "CTCTACAA", "PBM E-score": -0.0259}
{"sequence": "GGGTCAGA", "PBM E-score": -0.289}
{"sequence": "AGATACAA", "PBM E-score": 0.279}
{"sequence": "CATCATTA", "PBM E-score": 0.191}
{"sequence": "CACAATGG", "PBM E-score": 0.0142}
{"sequence": "AGCATATA", "PBM E-score": 0.102}
{"sequence": "AGCGGCGG", "PBM E-score": 0.088}
{"sequence": "GAGCATGC", "PBM E-score": -0.119}
{"sequence": "TTATATAA", "PBM E-score": 0.358}
{"sequence": "CCTTGATC", "PBM E-score": -0.208}
{"sequence": "CGCCCCAG", "PBM E-score": -0.179}
{"sequence": "ACATGAAG", "PBM E-score": 0.0557}
{"sequence": "CATAAACG", "PBM E-score": -0.0226}
{"sequence": "ACACATCG", "PBM E-score": -0.0707}
{"sequence": "ATTGCTTA", "PBM E-score": 0.138}
{"sequence": "ACCAGAAT", "PBM E-score": 0.0765}
{"sequence": "ATAACGGC", "PBM E-score": 0.00713}
{"sequence": "CTGTCGCA", "PBM E-score": -0.0571}
{"sequence": "ATTTGCAC", "PBM E-score": 0.0239}
{"sequence": "CAGCTTAG", "PBM E-score": -0.146}
{"sequence": "GCCCGCCA", "PBM E-score": -0.227}
{"sequence": "CCACAGCG", "PBM E-score": -0.173}
{"sequence": "GGCGTCAA", "PBM E-score": -0.094}
{"sequence": "ATTTTGTG", "PBM E-score": 0.239}
{"sequence": "ACCCGCAT", "PBM E-score": 0.0722}
{"sequence": "CGTACATC", "PBM E-score": -0.0591}
{"sequence": "ATGAGGGG", "PBM E-score": -0.364}
{"sequence": "ATACTCAC", "PBM E-score": 0.0457}
{"sequence": "GAGTAAGC", "PBM E-score": -0.12}
{"sequence": "GCACATGC", "PBM E-score": -0.208}
{"sequence": "GATTAGAC", "PBM E-score": 0.0621}
{"sequence": "AGCGGACC", "PBM E-score": 0.00064}
{"sequence": "CCGGATTA", "PBM E-score": 0.213}
{"sequence": "GGTGCTAC", "PBM E-score": -0.0972}
{"sequence": "GAGGTCAA", "PBM E-score": -0.0984}
{"sequence": "GCGGTCCA", "PBM E-score": -0.186}
{"sequence": "AGCGTAGG", "PBM E-score": -0.0355}
{"sequence": "ATCCAACC", "PBM E-score": 0.0521}
{"sequence": "GAAGAGGC", "PBM E-score": -0.219}
{"sequence": "CGTCCGGC", "PBM E-score": -0.0125}
{"sequence": "CCGGTTCA", "PBM E-score": -0.00765}
{"sequence": "AAACCGGT", "PBM E-score": -0.0411}
{"sequence": "AACATCCT", "PBM E-score": -0.105}
{"sequence": "GCTGGAGA", "PBM E-score": -0.247}
{"sequence": "GATGCCGA", "PBM E-score": 0.0413}
{"sequence": "GGCGTGAC", "PBM E-score": -0.197}
{"sequence": "GTATAACA", "PBM E-score": 0.215}
{"sequence": "ACACTTGC", "PBM E-score": -0.0671}
{"sequence": "GCCGGGTA", "PBM E-score": -0.268}
{"sequence": "AGACGGCT", "PBM E-score": -0.121}
{"sequence": "GCTGAGAC", "PBM E-score": -0.124}
{"sequence": "GATGCAAA", "PBM E-score": 0.0876}
{"sequence": "GCTAATGA", "PBM E-score": -0.126}
{"sequence": "AGGCCTAT", "PBM E-score": -0.166}
{"sequence": "CGAGCTAA", "PBM E-score": 0.116}
{"sequence": "CCTTAGAA", "PBM E-score": -0.182}
{"sequence": "GTTCACAA", "PBM E-score": 0.15}
{"sequence": "AAATGGTA", "PBM E-score": 0.288}
{"sequence": "CTTGATCC", "PBM E-score": 0.0468}
{"sequence": "AAAATGCC", "PBM E-score": 0.0303}
{"sequence": "GATAACTA", "PBM E-score": 0.157}
{"sequence": "CTAGCATA", "PBM E-score": 0.061}
{"sequence": "AAGGAGTC", "PBM E-score": -0.0614}
{"sequence": "CTGAGCGC", "PBM E-score": -0.189}
{"sequence": "AACCCGTA", "PBM E-score": -0.0786}
{"sequence": "GCTCGCCC", "PBM E-score": -0.294}
{"sequence": "AAATCTGC", "PBM E-score": 0.0274}
{"sequence": "ATTGACAC", "PBM E-score": -0.119}
{"sequence": "ACTGATAC", "PBM E-score": -0.0584}
{"sequence": "CGGAAGGA", "PBM E-score": 0.0973}
{"sequence": "ATGGTTCA", "PBM E-score": 0.0618}
{"sequence": "TACGTCTA", "PBM E-score": 0.00038}
{"sequence": "GGCCGGGA", "PBM E-score": -0.0623}
{"sequence": "CAGATAGC", "PBM E-score": -0.0832}
{"sequence": "AAGTACTT", "PBM E-score": -0.049}
{"sequence": "AATCACAT", "PBM E-score": 0.139}
{"sequence": "AGGTCGTC", "PBM E-score": -0.0711}
{"sequence": "ACACAGCC", "PBM E-score": -0.162}
{"sequence": "CGACACAA", "PBM E-score": -0.149}
{"sequence": "GCTGCGAA", "PBM E-score": 0.0328}
{"sequence": "AGATCACT", "PBM E-score": 0.194}
{"sequence": "GGTTCTTA", "PBM E-score": 0.16}
{"sequence": "CAGTTGAG", "PBM E-score": -0.124}
{"sequence": "GACTCTCA", "PBM E-score": 0.158}
{"sequence": "ACACACAT", "PBM E-score": 0.0403}
{"sequence": "GCCTCGGA", "PBM E-score": 0.198}
{"sequence": "GTGCACCA", "PBM E-score": -0.1}
{"sequence": "ACATAAGC", "PBM E-score": 0.0566}
{"sequence": "ATACTCAG", "PBM E-score": 0.0528}
{"sequence": "AGAGACCT", "PBM E-score": -0.105}
{"sequence": "CCATGATA", "PBM E-score": 0.0658}
{"sequence": "GATTCGGA", "PBM E-score": 0.385}
{"sequence": "ACGTGTCG", "PBM E-score": -0.12}
{"sequence": "TCCCTCAA", "PBM E-score": -0.221}
{"sequence": "GCTAGGAC", "PBM E-score": -0.0531}
{"sequence": "CCTACCCA", "PBM E-score": -0.21}
{"sequence": "GGATATAA", "PBM E-score": 0.248}
{"sequence": "CATTGGCC", "PBM E-score": -0.363}
{"sequence": "ATGGTCGC", "PBM E-score": -0.185}
{"sequence": "CATCTAGA", "PBM E-score": 0.0544}
{"sequence": "ACTTTTAG", "PBM E-score": 0.136}
{"sequence": "TGTTAACA", "PBM E-score": 0.0907}
{"sequence": "CAGCGGGG", "PBM E-score": -0.149}
{"sequence": "CATGGTAG", "PBM E-score": -0.0975}
{"sequence": "AAAGACGT", "PBM E-score": -0.0316}
{"sequence": "GATACAAA", "PBM E-score": 0.112}
{"sequence": "AAAACGGA", "PBM E-score": 0.244}
{"sequence": "CATTGTAC", "PBM E-score": 0.0761}
{"sequence": "CGTATCAC", "PBM E-score": -0.119}
{"sequence": "ACAGCAAC", "PBM E-score": 0.111}
